Measured values: the RNAGym collection of RNA variant scans (doi:10.1093/nar/gkz1192)
The source gives no read counts; variants with many changes may rest on few reads.

B1: CPEB3 Ribozyme (parent)
chain: UAACAGGGGGCCACAGCAGAAGCGUUCACGUCGCAGCCCCUGUCAGAUUCUGGUGAAUCUGCGAAUUCUGCUGUAUAUCUC

Variants of: B1
Assay: self-cleavage, relative activity (ratio to wild type); higher = more cleavage; in vitro, sequencing
In short: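 For each CPEB3 ribozyme variant, relative activity is its cleaved/total read fraction divided by the unmutated ribozyme's. Barcoded error-prone PCR libraries were transcribed by T7 RNA polymerase (5 hours, 37°C) and held in DNase I for 15 min before an EDTA stop, with cleavage occurring throughout. Template-switching reverse transcription and Illumina sequencing were used to read the RNAs. A 5-read minimum applied, and results are the mean of three batches.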

Variant | self-cleavage
A2U U48C U49C U69A U72C | 0.11
A3C G9C A28G A56G U74C | 0.09
A3C C17A A21G U41A U60C | 0.25
A3C U25C U31G U51A U72C | 0.08
A3C A5C A15U | 0.47
A3C A5U A18G A20U U25A G33U U80A | 0.14
A3C A13C U67C U72C U78C | 0.37
A2U U41C U67A | 0.58
A3C A13U G42A C44A | 0.32
A3C U31C G55U | 1.16
A3C G73A U80A | 1.22
A3C A18G G24C U41C U67C U80A | 0.12
A3C A21G G22A C23U U51C U60C A64C | 0.07
A2U U26A A45U U54C | 0.37
A3C U31A U51G | 0.67
A2U U41A A56G | 0.24
A2U U58C A65U | 0.25
A3C C23A U72C | 0.15
A3C A56U U69A U76C | 0.33
A3C A45C G73A U76A | 0.89
A3C C14G A18U A56G U60A U66C | 0.09
A3C A5C C11G A13U C40U U76C | 0.61
A3C A20G U25A A47C U48C | 0.37
A3C A35U A47U U60A | 0.09

Variant | self-cleavage
A2U U69C A75G | 0.23
A3C A21G C23U A47G C59A U72C | 0.11
A3C U25A C59A A64G U80C | 0.21
A3C C38U U69C A75G | 0.38
A3C C29A U60C | 0.47
A2U U67C U74C | 0.18
A2U U26A A56G | 0.46
A3C A20U C23U G33A U72A A77G | 0.28
A3C A20U U76C U78C | 0.27
A3C A18U U49C U60C U72C | 0.08
A2U U26C A77U | 0.65
A2U U31C A35G | 1.12
A3C A28G U31C U41C | 0.52
A3C A5U A21G U51G U60C G63U | 0.06
A3C A15G U25C U26C | 0.7
A3C U31A G52A A56G U60A A65U | 0.15
A3C C12U G16U U76C A77U | 0.58
A3C U26C A28C A35U U60C G63A | 0.09
A3C A21U C29G | 0.43
A3C C29G U74C | 0.74
A3C A15G A45G | 0.49
A3C G16C U48G C59A U78A | 0.27
A3C C32A U43C U54C | 0.22
A3C G9A U31C | 0.46

Variant | self-cleavage
A3C C23G C29U | 0.14
A2U U41G A47G G70A | 0.06
A2U U41C A64G U67A U69C | 0.2
A3C A21G A64G | 0.71
A3C C12A C38U C40A A57C U67A | 0.08
A3C G16U C39G U49C A64G | 0.08
A3C A28G C40A U41A A47U C68A U74C | 0.05
A3C G7U A15U A45G U60C | 0.33
A3C G7U A28U U58C | 0.06
A3C G10A A18G A56G U74A | 0.08
A3C A35G U60C A64G | 1.2
A3C A15U A65G U80C | 0.51
A3C A18U A45G A56G | 0.42
A3C A5C A21G U51G U74A | 1.01
A3C A28U A35G U43A U58A U60C U69A | 0.46
A3C C71U U76A | 0.91
A2U U25C U67C U72C | 0.08
A3C A5C A28C A56G U58C | 0.28
A3C U41C U43C G55A | 0.22
A2U U49C U51C U60A | 0.09
A3C A47G U48A | 0.68
A3C G16U A18U G46U | 0.09
A3C A13U A28C | 0.87
A3C C38U U51C A56G U67A G73A | 0.85

Variant | self-cleavage
A3C A35G U43A U51C U60C | 0.87
A2U U26A A28G U72C U76A | 0.3
A3C C40U U67C | 0.15
A2U U41A U54G | 0.31
A3C U43A U54C G73U U80C | 1.3
A3C A56G U78C U80C | 0.6
A3C A20G A28U C32A A47G U60C U80C | 0.28
A3C A5G A13G U25A U60C | 0
A3C A35G A65G A75G | 1.06
A2U U31A U67A G70A | 0.19
A3C C4U G24A A28U A64G | 0.65
A3C U26C U43C A64U | 0.21
A2U U54C U69C U78C | 0.32
A3C A28U U43C A45G U80C | 0.46
A3C U25C C39U U41A A45U | 0.36
A2U U54C A64U | 0.39
A2U U25C U31C U51A U78A | 0.2
A2U U25C U31C U51A U78C | 0.08
A3C A13U C32U U49C A64U U78C | 0.06
A3C C40A U41A A47U C68A U74C U78A | 0.17
A3C U31A U67A | 0.21
A2U U25G U26A C38U U72C | 0.36
A3C A20U U31A A35G U69A A77G | 0.37
A3C A15G U25C U49C | 0.4

Variant | self-cleavage
A3C A13G U49C | 0.48
A3C A64U U78G | 0.54
A3C A13G G73A | 1.16
A3C A15G U60A | 0.56
A3C C29G A65G | 0.08
A3C A21G U80C | 0.86
A3C A28G U41A | 0.19
A3C A21G A35G C38U | 1.2
A3C G19U U54C U69A | 0.32
A3C G10A A18G A21G | 0.07
A3C A20U A35U G63A U69C | 0.08
A3C A18G U25C C29U G52U U60A A65G | 0.14
A2U U25C U41C U66C | 0.38
A3C C17U U25C U26C U41G U69C | 0.09
A3C U43G G53A U69A | 0.32
A2U U26A U67A U78C | 0.32
A3C A13G U26C A28G C40U C50A | 0.07
A3C A21C U72C U78C | 0.38
A2U U31C U58C | 0.1
A2U U26C U60C A64G U66C U69C | 0.31
A3C U26C A35G U41C U49A U51A A75U | 1.15
A3C A13U C14A C17A C40U U78C | 0.49
A2U U26A U54G | 0.59
A2U U51C U58C U60C U72C U78C | 0.21

Variant | self-cleavage
A2U U43C U60A | 0.15
A3C C27A U41A U51C A56U | 0.11
A3C A18G U51A U72C U76C A77G | 0.49
A2U U49C G70A | 0.36
A2U U31C A35U A65U | 0.17
A3C U41C U43A | 0.93
A3C G6A U67A | 0.08
A2U U41C U60A U67C A75G | 0.17
A3C G9C G53A G61C | 0.06
A2U U25C U31A U72C | 0.07
A3C U43C A47G A75G | 0.32
A3C A18U U51C | 0.39
A3C A20U C38A U51G G63U | 0.1
A3C U43A C62U | 0.34
A3C A15U U25C U26C A65U U80C | 0.35
A2U U26A U72C | 0.18
A3C A35U A57G U69C U74A | 0.19
A3C A35G U43C | 1.3
A3C A28G U49C | 0.14
A3C G6C G70C U74C | 0.35
A3C A13C G53C | 1.09
A3C A20G A21G A47U | 0.4
A3C A15G A47G U54C A56U U67C U78A | 0.19
A2U U69C U78A | 0.29

Variant | self-cleavage
A3C A5G A35U U51A U80C | 0.48
A3C G30A U31C | 0.55
A2U U26A U43A C44U U74C | 0.59
A3C G9U A35C | 0.09
A2U U31G U51C | 0.41
A3C A13U U43C | 1.24
A3C A28G A47G U51C U60A G73C U74A | 0.14
A3C A15G U26A A64G | 0.92
A3C G10C A21G U26C U78A | 0.34
A3C A13U A64G U66C | 0.69
A3C G36U U41A A64G | 0.16
A2U U58C U78A | 0.53
A3C A56G A64U | 0.42
A2U U54G A64U | 0.32
A3C C23G C50U U60A U78C | 0.04
A3C U26A U31C | 1.19
A2U U41C G42C U51C A64G U69C | 0.36
A3C A21G U25C C71G | 0.08
A3C A18G U43A U58A U60A A64G U69A | 0.22
A3C A57C U60A C62U | 0.13
A3C U31C U41C A57G U60C | 0.39
A3C A15U A35G U41C U43C | 1.12
A2U U49A U51C U60A | 0.14
